Biological target: T1, human CTLA-4 (human, UniProt P16410 36-223)
T1 construct: whole, on cells; also called CHO/CTLA-4 cells
Test: flow cytometry on CHO/CTLA-4 cells

T1 sequence (P16410 36-223): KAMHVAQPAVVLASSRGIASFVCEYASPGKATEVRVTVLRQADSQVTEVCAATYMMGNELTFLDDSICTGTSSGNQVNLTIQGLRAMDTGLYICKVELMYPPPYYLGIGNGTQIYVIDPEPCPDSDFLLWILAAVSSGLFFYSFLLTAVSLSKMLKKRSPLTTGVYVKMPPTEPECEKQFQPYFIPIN

Row | Binder | MFI at 0.8 nM | MFI at 4 nM | MFI at 20 nM | MFI at 100 nM | fold change vs WT CD80 at 20 nM
1 | CD80_216 variant CD80 IgV-Fc (V11W, T28Y, D46V, R73E, F92L) (Fc fusion, also called CD80_216-Fc) VIHVTKEVKEWATLSCGHNVSVEELAQYRIYWQKEKKMVLTMMSGVMNIWPEYKNRTIFDITNNLSIVILALEPSDEGTYECVVLKYEKDALKREHLAEVTLSVKADGSGGGGS[omitted - human IgG4 Fc with S228P (EU numbers)] | 212000 MFI | 406000 MFI | 502000 MFI | 520000 MFI | 0.61 fold
2 | CD80_229 variant CD80 IgV-Fc (V11Y, M47V, A71G, L85E) (Fc fusion, also called CD80_229-Fc) VIHVTKEVKEYATLSCGHNVSVEELAQTRIYWQKEKKMVLTMMSGDVNIWPEYKNRTIFDITNNLSIVILGLRPSDEGTYECVVEKYEKDAFKREHLAEVTLSVKADGSGGGGS[omitted - human IgG4 Fc with S228P (EU numbers)] | 2230 MFI | 8640 MFI | 30000 MFI | 82100 MFI | 0.04 fold
3 | CD80_230 variant CD80 IgV-Fc (E10G, Q27F, D46N, A71G, D90G) (Fc fusion, also called CD80_230-Fc) VIHVTKEVKGVATLSCGHNVSVEELAFTRIYWQKEKKMVLTMMSGNMNIWPEYKNRTIFDITNNLSIVILGLRPSDEGTYECVVLKYEKGAFKREHLAEVTLSVKADGSGGGGS[omitted - human IgG4 Fc with S228P (EU numbers)] | 356000 MFI | 597000 MFI | 670000 MFI | 701000 MFI | 0.81 fold
4 | CD80_227 variant CD80 IgV-Fc (V11W, T28H, D46Q, V68L, L85E) (Fc fusion, also called CD80_227-Fc) VIHVTKEVKEWATLSCGHNVSVEELAQHRIYWQKEKKMVLTMMSGQMNIWPEYKNRTIFDITNNLSILILALRPSDEGTYECVVEKYEKDAFKREHLAEVTLSVKADGSGGGGS[omitted - human IgG4 Fc with S228P (EU numbers)] | 18200 MFI | 59700 MFI | 184000 MFI | 452000 MFI | 0.22 fold
5 | CD80_221 variant CD80 IgV-Fc (E10G, A26S, T28Y) (Fc fusion, also called CD80_221-Fc) VIHVTKEVKGVATLSCGHNVSVEELSQYRIYWQKEKKMVLTMMSGDMNIWPEYKNRTIFDITNNLSIVILALRPSDEGTYECVVLKYEKDAFKREHLAEVTLSVKADGSGGGGS[omitted - human IgG4 Fc with S228P (EU numbers)] | 251000 MFI | 463000 MFI | 563000 MFI | 581000 MFI | 0.68 fold
6 | CD80_225 variant CD80 IgV-Fc (V11Y, M47L, V68T) (Fc fusion, also called CD80_225-Fc) VIHVTKEVKEYATLSCGHNVSVEELAQTRIYWQKEKKMVLTMMSGDLNIWPEYKNRTIFDITNNLSITILALRPSDEGTYECVVLKYEKDAFKREHLAEVTLSVKADGSGGGGS[omitted - human IgG4 Fc with S228P (EU numbers)] | 235000 MFI | 390000 MFI | 476000 MFI | 493000 MFI | 0.57 fold
7 | CD80_224 variant CD80 IgV-Fc (K9N, V11W, M47L, V68T, R73T, Y87N) (Fc fusion, also called CD80_224-Fc) VIHVTKEVNEWATLSCGHNVSVEELAQTRIYWQKEKKMVLTMMSGDLNIWPEYKNRTIFDITNNLSITILALTPSDEGTYECVVLKNEKDAFKREHLAEVTLSVKADGSGGGGS[omitted - human IgG4 Fc with S228P (EU numbers)] | 246000 MFI | – | 503000 MFI | 520000 MFI | 0.61 fold
8 | CD80_217 variant CD80 IgV-Fc (K9N, E10G, Y87K, T101Q) (Fc fusion, also called CD80_217-Fc) VIHVTKEVNGVATLSCGHNVSVEELAQTRIYWQKEKKMVLTMMSGDMNIWPEYKNRTIFDITNNLSIVILALRPSDEGTYECVVLKKEKDAFKREHLAEVQLSVKADGSGGGGS[omitted - human IgG4 Fc with S228P (EU numbers)] | 249000 MFI | 546000 MFI | 689000 MFI | 694000 MFI | 0.83 fold
9 | CD80_232 variant CD80 IgV-Fc (V11F, T28Y, M47L) (Fc fusion, also called CD80_232-Fc) VIHVTKEVKEFATLSCGHNVSVEELAQYRIYWQKEKKMVLTMMSGDLNIWPEYKNRTIFDITNNLSIVILALRPSDEGTYECVVLKYEKDAFKREHLAEVTLSVKADGSGGGGS[omitted - human IgG4 Fc with S228P (EU numbers)] | 359000 MFI | 521000 MFI | 563000 MFI | 575000 MFI | 0.68 fold
10 | CD80_231 variant CD80 IgV-Fc (V11W, T28Y, M47L) (Fc fusion, also called CD80_231-Fc) VIHVTKEVKEWATLSCGHNVSVEELAQYRIYWQKEKKMVLTMMSGDLNIWPEYKNRTIFDITNNLSIVILALRPSDEGTYECVVLKYEKDAFKREHLAEVTLSVKADGSGGGGS[omitted - human IgG4 Fc with S228P (EU numbers)] | 370000 MFI | 520000 MFI | 525000 MFI | 549000 MFI | 0.63 fold
11 | CD80_226 variant CD80 IgV-Fc (K9R, A26T, T28Y, E35A, M47L, A71G) (Fc fusion, also called CD80_226-Fc) VIHVTKEVREVATLSCGHNVSVEELTQYRIYWQKAKKMVLTMMSGDLNIWPEYKNRTIFDITNNLSIVILGLRPSDEGTYECVVLKYEKDAFKREHLAEVTLSVKADGSGGGGS[omitted - human IgG4 Fc with S228P (EU numbers)] | 336000 MFI | 490000 MFI | 555000 MFI | 534000 MFI | 0.67 fold
12 | CD80_223 variant CD80 IgV-Fc (E10S, V68M, Y87P) (Fc fusion, also called CD80_223-Fc) VIHVTKEVKSVATLSCGHNVSVEELAQTRIYWQKEKKMVLTMMSGDMNIWPEYKNRTIFDITNNLSIMILALRPSDEGTYECVVLKPEKDAFKREHLAEVTLSVKADGSGGGGS[omitted - human IgG4 Fc with S228P (EU numbers)] | 2440 MFI | 10400 MFI | 44500 MFI | 150000 MFI | 0.05 fold
13 | CD80_228 variant CD80 IgV-Fc (E7Q, V11Y, R29H, M47L, V68T) (Fc fusion, also called CD80_228-Fc) VIHVTKQVKEYATLSCGHNVSVEELAQTHIYWQKEKKMVLTMMSGDLNIWPEYKNRTIFDITNNLSITILALRPSDEGTYECVVLKYEKDAFKREHLAEVTLSVKADGSGGGGS[omitted - human IgG4 Fc with S228P (EU numbers)] | 20600 MFI | 41100 MFI | 80500 MFI | 156000 MFI | 0.1 fold
14 | CD80_222 variant CD80 IgV-Fc (E35D, D46Q, L85E) (Fc fusion, also called CD80_222-Fc) VIHVTKEVKEVATLSCGHNVSVEELAQTRIYWQKDKKMVLTMMSGQMNIWPEYKNRTIFDITNNLSIVILALRPSDEGTYECVVEKYEKDAFKREHLAEVTLSVKADGSGGGGS[omitted - human IgG4 Fc with S228P (EU numbers)] | 16800 MFI | 61700 MFI | 217000 MFI | 497000 MFI | 0.26 fold

More lines, now with the values ahead:

Row | MFI at 0.8 nM | MFI at 4 nM | MFI at 20 nM | MFI at 100 nM | fold change vs WT CD80 at 20 nM | Binder
15 | 246000 MFI | 497000 MFI | 619000 MFI | 636000 MFI | 0.75 fold | CD80_235 variant CD80 IgV-Fc (V11Y, M47L, A71G) (Fc fusion, also called CD80_235-Fc) VIHVTKEVKEYATLSCGHNVSVEELAQTRIYWQKEKKMVLTMMSGDLNIWPEYKNRTIFDITNNLSIVILGLRPSDEGTYECVVLKYEKDAFKREHLAEVTLSVKADGSGGGGS[omitted - human IgG4 Fc with S228P (EU numbers)]
16 | 345000 MFI | 516000 MFI | 565000 MFI | 555000 MFI | 0.68 fold | CD80_239 variant CD80 IgV-Fc (V11Y, T28Y, D46E, M47V) (Fc fusion, also called CD80_239-Fc) VIHVTKEVKEYATLSCGHNVSVEELAQYRIYWQKEKKMVLTMMSGEVNIWPEYKNRTIFDITNNLSIVILALRPSDEGTYECVVLKYEKDAFKREHLAEVTLSVKADGSGGGGS[omitted - human IgG4 Fc with S228P (EU numbers)]
17 | 268000 MFI | 483000 MFI | 507000 MFI | 491000 MFI | 0.61 fold | CD80_236 variant CD80 IgV-Fc (V11Y, T28Y, M47L, A71G) (Fc fusion, also called CD80_236-Fc) VIHVTKEVKEYATLSCGHNVSVEELAQYRIYWQKEKKMVLTMMSGDLNIWPEYKNRTIFDITNNLSIVILGLRPSDEGTYECVVLKYEKDAFKREHLAEVTLSVKADGSGGGGS[omitted - human IgG4 Fc with S228P (EU numbers)]
18 | 44900 MFI | 123000 MFI | 337000 MFI | 498000 MFI | 0.41 fold | CD80_238 variant CD80 IgV-Fc (V11Y, D46E, M47V, V68M) (Fc fusion, also called CD80_238-Fc) VIHVTKEVKEYATLSCGHNVSVEELAQTRIYWQKEKKMVLTMMSGEVNIWPEYKNRTIFDITNNLSIMILALRPSDEGTYECVVLKYEKDAFKREHLAEVTLSVKADGSGGGGS[omitted - human IgG4 Fc with S228P (EU numbers)]
19 | 321000 MFI | 531000 MFI | 625000 MFI | 589000 MFI | 0.75 fold | CD80_240 variant CD80 IgV-Fc (V11Y, T28Y, D46E, M47V, V68M) (Fc fusion, also called CD80_240-Fc) VIHVTKEVKEYATLSCGHNVSVEELAQYRIYWQKEKKMVLTMMSGEVNIWPEYKNRTIFDITNNLSIMILALRPSDEGTYECVVLKYEKDAFKREHLAEVTLSVKADGSGGGGS[omitted - human IgG4 Fc with S228P (EU numbers)]
20 | 288000 MFI | 546000 MFI | 571000 MFI | 567000 MFI | 0.69 fold | CD80_234 variant CD80 IgV-Fc (V11Y, T28Y, M47L, V68L) (Fc fusion, also called CD80_234-Fc) VIHVTKEVKEYATLSCGHNVSVEELAQYRIYWQKEKKMVLTMMSGDLNIWPEYKNRTIFDITNNLSILILALRPSDEGTYECVVLKYEKDAFKREHLAEVTLSVKADGSGGGGS[omitted - human IgG4 Fc with S228P (EU numbers)]
21 | 349000 MFI | 559000 MFI | 593000 MFI | 606000 MFI | 0.72 fold | CD80_233 variant CD80 IgV-Fc (V11Y, T28Y, M47L, V68M) (Fc fusion, also called CD80_233-Fc) VIHVTKEVKEYATLSCGHNVSVEELAQYRIYWQKEKKMVLTMMSGDLNIWPEYKNRTIFDITNNLSIMILALRPSDEGTYECVVLKYEKDAFKREHLAEVTLSVKADGSGGGGS[omitted - human IgG4 Fc with S228P (EU numbers)]

Reference: patent US20250243260A1 (ALPINE IMMUNE SCIENCES, published 2025)
